# Laboratory results published in ChEMBL document CHEMBL4888484, “Replenishing the malaria drug discovery pipeline: Screening and hit evaluation of the MMV Hit Generation Library 1 (HGL1) against asexual blood stage Plasmodium falciparum ,using a nano luciferase reporter read-out” (2022).
# Out of some 150,000 compounds screened, about 540 (0.36%) showed an effect of 50% or more. This is one part of the list.
# Tested on: Plasmodium falciparum
# Test: Primary screen in NF54 nanoGlo assay, in single point, at 2uM, 72h; a lower Z score goes with more inhibition
# Assay type: functional, Erythrocyte
# Conditions: timepoint 72 hour
SMILES,% Inhibition,Z score
COc1cccc2sc(N3CC(C(=O)NC4CCCC4)C3)nc12,-9%,1.76
Cc1cc2c(cc1C)N(C(=O)[C@H](Cc1ccccc1)N1C(=O)c3ccccc3C1=O)C(C)(C)c1ssc(=S)c1-2,5%,-0.58
Cc1c(C(=O)N2CCC[C@H]2C(=O)Nc2cc(Cl)cc(Cl)c2)cnn1C,2%,-0.35
CC(C)c1noc(-c2ccc(-c3ccc4c(c3)OCO4)nc2)n1,3%,-0.47
O=C(c1cn2cccnc2n1)N1CC[C@@]12CCOC2,9%,-1.09
NS(=O)(=O)C[C@H]1CCCN(Cc2csc3c(F)cccc23)C1,-1%,0.09
Cc1cccc(NC(=O)N2CCCCC[C@H]2c2ccccc2Cl)c1,3%,-0.66
COCCn1nnnc1[C@@H]1CN(C(=O)c2cc(C)n3nc(C)cc3n2)CCO1,-6%,1.25
Cc1ccnc2nc(C(=O)OC[C@H]3CCCO3)nn12,9%,-1.18
COc1cc(Cn2ccnc2C2CCN(C)CC2)cc(OC)c1OC,11%,-1.21
O=C(Nc1ccccc1)N1CCC2(CC1)C[C@@H](N1CCN(c3ccccc3)CC1)CCO2,-24%,2.53
COCCN1C[C@]2(CCCN(C(=O)c3cnc(C)nc3C)C2)CCC1=O,-4%,0.68
CO[C@@H]1CCN(C(=O)Nc2ccnn2Cc2ccc(Cl)s2)C1,-4%,0.76
O=C(NCCn1cc(-c2ccncc2)cn1)c1ccsc1,-11%,2.17
CCC1CCN(C(=O)CCC(N)=O)CC1,16%,-1.86
CC(NC(=O)C(C1CC1)N1CCCC1)c1ccc(-n2ccnn2)cc1 (stereo not given),-8%,0.94
CC(C)[C@H](NC(=O)[C@H](Cc1ccccc1)n1cnnn1)c1nc2ccccc2[nH]1,-15%,1.85
CCO[C@H]1COC[C@@H]1NC(=O)N(C)Cc1ccoc1,-15%,1.94
C=CCn1cc(-c2cn(C3CCN(S(C)(=O)=O)CC3)nn2)cn1,-9%,1.2
N#Cc1ccc(N2CC[C@H](OCCN3CCCCC3)C2)nc1,-16%,2.12
COc1cc(OC)nc(N2CCC(OCc3cccnc3)CC2)n1,-12%,1.06
COCCN1CC[C@H](C(=O)Nc2cc(C)c3nc(N)sc3c2)C1,-7%,1.5

SMILES,% Inhibition,Z score
COc1cccc(C2=NN(C(C)=O)C3(CCCCC3)O2)c1,7%,-1.15
Cn1cc(CNC2C3CCOC3C23CCCC3)c(C(F)(F)F)n1 (stereo not given),-9%,1.17
COCC[C@]1(c2noc(-c3ccncc3)n2)CCCNC1,-3%,0.4
COc1ccc(NC(=O)Cc2ccc(OC)c(OC)c2)cc1NC(=O)c1ccccc1C,14%,-1.85
Brc1cnc(NCCCO[C@H]2CCOC2)nc1,-3%,0.32
CC(C)c1cc(C(=O)OCc2cccc3cn[nH]c23)nn1C,-1%,0.07
CCOC(=O)CN(C)C(=O)C(C)(C)[C@H]1CCC[C@@H](C(F)(F)F)N1,8%,-1.08
CCCN1CCC[C@H](C(=O)N2CCCCCC2)C1,-16%,1.76
O=C(c1ccc(-c2ccco2)[nH]c1=O)N1CCCN(Cc2ccc(Cl)cc2)CC1,7%,-1.22
C[C@H]1CCN(CC(=O)N2CCC(c3nc4ccccc4o3)CC2)C1=O,-3%,0.52
Cc1c(Cl)cccc1NC(=O)CCN(C)Cc1cc2cc(F)ccc2[nH]1,0%,0.07
CCO[C@@H](C(=O)NC1CCS(=O)(=O)CC1)c1ccccc1,-9%,1.44
Cc1nccn1CCCC(=O)NC[C@H](O)c1ccc(C(C)(C)C)cc1,3%,-0.46
O=C(O)Cc1sc(-c2ccc(Br)cc2)nc1-c1ccc(Oc2ccccc2)cc1,-2%,0.38
CN1CC[C@H](CNc2ccnc3c(F)cc(Cl)cc23)CC1=O,4%,-0.74
CC[C@@]1(C)COCCN1C(=O)c1ccnc(C2CC2)n1,-4%,0.69
C[C@H]1CCCN(Cc2cccc3c2OCCO3)C1,-13%,1.88
COc1cc(CN2CC[C@H](NC(=O)c3ccncc3)[C@@H](O)C2)ccc1F,-9%,0.8
COc1cccc(NC(=O)N2CCC(N3C(=O)COCC3=O)CC2)c1,24%,-3.15
COc1ccc(S(=O)(=O)C2CNC2)cc1,-8%,0.88
O=C(Nc1ccccn1)C(=O)N1CCCC1,-10%,1.32
CCN(CC)C(=O)c1cn(C[C@H]2CCCN(C(=O)c3cc(OC)c(OC)c(OC)c3)C2)nn1,-18%,2.64

SMILES,% Inhibition,Z score
Cn1cc(CCC(=O)Nc2cc([C@H]3CCCOC3)[nH]n2)cn1,-4%,0.66
CCOC(=O)C1CCN(C(=O)Cn2c(=O)n(C)c(=O)c3cnn(-c4ccccc4)c32)CC1,-7%,1.22
CO[C@@H](CNC(=O)Nc1ccccc1C(F)(F)F)c1ccsc1,-6%,0.82
Cc1cccc(NC(=O)CN(C)CCF)c1C,-8%,1.08
COC[C@H](C)Nc1cccc(N(C)C(C)C)c1,3%,-0.29
COc1ccc(NC(=O)Cn2nc3c4ccc(Cl)cc4ncn3c2=O)cc1OC,2%,-0.4
COC(=O)C1CCN(Cc2cn(C[C@@H](C)CC(C)C)nn2)CC1,-21%,2.86
Cc1cccc(N2C(=O)c3cccnc3[C@@H]2CC(=O)NC2CCCC2)c1,1%,-0.1
CC(C)N(C(=O)N1CCOCC1)C1CCCC1,-2%,0.2
Cn1c(CO[C@H]2CCCc3c[nH]nc32)cc(=O)n(C)c1=O,1%,-0.12
C[C@@H](Cn1cccn1)c1nc(C2CC2)n[nH]1,7%,-0.88
Cc1ccc2c(c1)NC(=O)c1cc(S(=O)(=O)N(C)c3c(C)cccc3C)ccc1O2,-11%,1.61
O=C(c1cnc(CC2CC2)s1)N1CCC2(CC1)C[C@H](O)CNC2=O,-12%,2
CCCc1nc(CN(CC)CC(=O)N(C)C)cs1,-9%,1.08
COCCn1cc(S(=O)(=O)N2CC[C@H](O)CC(C)(C)C2)cn1,1%,-0.19
COCCCNC(=O)C1Cc2cc(C(F)(F)F)ccc2N2CCN(c3ccc(OC)cc3)CC12 (stereo not given),-9%,1.44
COc1ccc(-c2csc3ncnc(Nc4cnn(C)c4)c23)cc1,-4%,0.68
Cc1cnc(CN2CC3(CCC2=O)CCN(Cc2ccccc2C#N)CC3)cn1,-11%,2.11
N[C@H]1CN(C(=O)c2ccc3ncccc3c2)C[C@@H]1C1CC1,-4%,0.46
OCC[C@H]1CN(Cc2ccc(-c3ccn[nH]3)o2)CCN1Cc1ccco1,5%,-0.66
Cc1nn2c(Nc3ccc(C(C)C)cc3)c3c(nc2c1-c1ccccc1)CCC3,1%,-0.26
Cc1ccc(S(=O)(=O)NCCc2nc3c(F)cccc3n2C)cc1,-18%,2.78

SMILES,% Inhibition,Z score
CCOC(=O)N1CCC(NC(=O)c2ccc(-c3cc(N)ncn3)cc2)CC1,-2%,0.31
N#Cc1cc(C(=O)N2CCc3c2cccc3C(F)(F)F)c[nH]1,-4%,0.84
CCc1nn(C)cc1NC(=O)[C@@H]1CCc2ccc(OC)cc21,0%,-0.03
NC(=O)c1ccc(N2CCC(C(F)(F)F)CC2)nn1,-13%,1.59
Cc1ccc(CNC(=O)NCC(=O)N2CCC[C@H]2c2cc(C)on2)cc1,1%,-0.23
CCC1(CNS(=O)(=O)c2ccsc2C#N)CC1,-6%,0.75
C[C@H]1CN(C(=O)c2cccs2)CCN1C(=O)c1cccs1,1%,-0.18
COc1ccnc(CN2CCC[C@H](c3nc(-c4ccccc4)c[nH]3)C2)c1OC,69%,-7.6
O=C(CNS(=O)(=O)Cc1ccccc1)Nc1cccnc1,-3%,0.52
O=C(Nc1ccc(CNc2ccccc2)cc1)[C@H]1CCCOC1,-7%,0.9
Nc1nc2c(c(N3C[C@H]4CC=CC[C@H]4C3)n1)CCNCC2,-14%,1.4
Cc1ccc(N2C(=O)CN(CC(C)C)[C@H]3CS(=O)(=O)C[C@H]32)cc1,37%,-1.17
Cc1cccc([C@@H]2CCCN2C(=O)CCc2ccn(C)n2)n1,-30%,3.47
CCc1nnc(CN(CC)C(=O)Nc2cc(C)ccc2-n2cnnn2)o1,-30%,3.06
CO[C@H]1CCOC[C@@H]1NC(=O)NC(c1ccccc1Cl)C(C)C (stereo not given in full),-6%,1.2
CC1CCN(CN2CC(=O)N(Cc3ccccc3C#N)C2=O)CC1,-7%,0.71
CNC(=O)C1(N2CCC[C@H]2C(=O)NCc2ccccc2)CCCCC1,26%,-2.98
O=C([C@@H]1C=CCN1)N(CC1CC1)C1CCCCC1,-12%,1.26
Cc1c[nH]c([C@H](C)NC(=O)c2cc3ccccc3o2)n1,-15%,1.53
